Test results as given in PubChem BioAssay AID1508623 (National Center for Advancing Translational Sciences (NCATS), 2021).
The whole screen tested about 48,000 compounds, of which about 450 (0.94%) were called active. Not shown: some 19% with an inconclusive outcome. Calls follow the shape of the dose curve; as a rule, active = well fitted inhibition curve with a large enough effect; inconclusive = small, poorly fitted or top-dose-only effect; inactive = no such curve, though single readings can be large or run the other way. This is one part of the list.

assay: Primary qHTS for Identification of Small Molecule Inhibitors of Huntingtin Promoter Activity; details: HEK293 HTT promoter firefly luciferase reporter (activity 0% = vehicle and -100% = no light), 24 h; series mostly up to 57.5 µM; activity change, negative = inhibition: at the top concentration; also: nearly all actives have a fitted effect of over 50% in size
Excerpt: Assay Provider: Russell L. Margolis M.D.
Department Neurology, Johns Hopkins University School of Medicine, Baltimore, MD
Huntington's Disease (HD) is a neurodegenerative disorder caused by a CAG repeat expansion in exon 1 of huntingtin (HTT). While there are currently no disease-modifying treatments for HD, recent efforts have focused on development of nucleotide-based therapeutics to lower HTT expression. As an alternative to siRNA or oligonucleotide methods, we hypothesized that suppression of HTT expression might be accomplished by small molecules that either (1) directly decrease HTT expression by suppressing HTT promoter activity or (2) indirectly decrease HTT expression by increasing the promoter activity of HTT-AS, the gene antisense to HTT that appears to inhibit expression of HTT.
We developed and employed a high throughput screen for modifiers of HTT and HTT-AS promoter activity using luminescent reporter HEK293 cells; of the 52,041 compounds tested, we identified 898 replicable hits. We used a rigorous stepwise approach to assess compound toxicity and the capacity of the compounds to specifically lower huntingtin protein in 5 different cell lines, including HEK293 cells, HD lymphoblastoid cells, mouse primary neurons, HD iPSCs differentiated into cortical-like neurons, and HD hESCs. We found no compounds which were able to lower huntingtin without lowering cell viability in all assays, though the potential efficacy of a few compounds at non-toxic doses could not be excluded.
SEQUENCE No. (1, 2, 3, etc.); […] (e.g., Cells, Incubation, Reagent, etc.); VALUE and DESCRIPTION.
1; Reagent; 4 uL; 2,500 Hek293 luciferase reporter cells per wells
3; Compound; 23 nL; Control inhibitor / compound library
5; Reagent; 2.5 uL; Firefly Luc reagent; Dual-Glo Luciferase Reporter Assay System (Promega)
6; Time; 10 min; room temperature incubation
7; Detection; Luminescence; FLuc
NOTES (numbers refer to sequence above)
1; High-throughput screening, measuring luminescence from a Hek293 luciferase reporter, was performed in 1,536 well white-walled tissue-culture treated plates. 2,500 cells were plated in 4 µL of Opti-MEM per well using a Multidrop Combi Reagent Dispenser (ThermoFisher).
2; Assay plates were cultured for 24 hours.
3; Control inhibitor (PTC124; final concentration of 50 uM) and compound library (at final concentrations of 460 nM - 57.5 uM) were added to the assay plate using the Kalypsis Pintool Robotic System equipped with 1536 pinheads.
4; Cells were then incubated for 24 hours at 37 degrees C prior to luminescence measurements.
5; In all cases, luminescence was measured using the Dual-Glo Luciferase Reporter Assay System (Promega) following the manufacturer's instructions.
6; Room temperature incubation.
7; Luminescence signal was obtained using the PerkinElmer ViewLux plate reader. Results were normalized to vehicle control (0% activity) and zero RLU (-100% activity).
Potency is read from the fitted curve at half-maximal effect.

| SMILES | activity change, negative = inhibition | Potency |
| --- | --- | --- |
| COc1ccc(NC(=O)CSC2=Nc3ccccc3C3=NC(CC(=O)NCc4ccc(F)cc4)C(=O)N23)cc1 (configuration not stated) | inactive: -18.8% |  |
| CCCOc1ccc(C(=O)Nc2c(C(=O)c3ccc(C)cc3)oc3ccccc23)cc1 | inactive: -4.29% |  |
| COc1ccc(CNC(=O)Cn2c(=O)oc3cc(S(=O)(=O)N4CCCC4)ccc32)cc1 | inactive: -16.9% |  |
| Cc1cccc(S(=O)(=O)c2cn(Cc3ccccc3)c3cc(N4CCCCC4C)c(F)cc3c2=O)c1 (configuration not stated) | inactive: -32.3% |  |
| CCCCc1ccc(C(=O)N/C(=C\c2ccc(C)cc2)C(=O)NC2CCCCC2)cc1 | inactive: 2.69% |  |
| Cc1cc(C(F)F)n2nc(C(=O)Nc3ccc(F)c(Cl)c3)nc2n1 | inactive: 5.69% |  |
| CCc1nc2ccc(C(=O)N3CCN(c4ccc(Cl)cc4)CC3)cc2nc1CC | inactive: -13.9% |  |
| COc1cccc(Nc2nc(-c3ccccc3)c3cc(C)ccc3n2)c1 | inactive: -21.8% |  |
| Cc1cccc(CNC(=O)c2ccc(Cn3c(=O)c4cccn4c4cccnc43)cc2)c1 | inactive: -0.684% |  |
| C[C@H](Cn1cnc2c(N)ncnc21)OCP(=O)(O)O | inactive: -19% |  |
| O=C(CC1N=C2c3ccccc3N=C(SCc3ccccc3F)N2C1=O)NCc1cccs1 (configuration not stated) | inactive: 30.4% |  |
| CCCCNc1cc(C(=O)O)cc(S(N)(=O)=O)c1Oc1ccccc1 | inactive |  |
| COc1cc(C2CC(=O)Nc3c2c(=O)nc2c(C)cccn32)cc(OC)c1OC (configuration not stated) | inactive: -3.93% |  |
| Cc1nn2c(-c3cccc(NC(=O)c4ccc(Cl)cc4)c3)nnc2c2ccccc12 | inactive: 0.922% |  |
| CCS(=O)(=O)N1CCc2cc(C(=O)Nc3cc(Cl)ccc3C)ccc21 | inactive: -15.4% |  |
| CCOC(=O)c1c(C)[nH]c(CCC(=O)Nc2ccccc2C(=O)OC)c1C | inactive: 1.55% |  |
| CC(C)C(=O)Nc1ccc2nc(SCCOc3ccccc3)sc2c1 | inactive: 10.3% |  |
| COc1ccc(CCNC(=O)CCS(=O)(=O)c2ccc3c(c2)oc(=O)n3C)cc1OC | inactive: 31.9% [at 11.5 µM] |  |
| Cc1ccc(N2CCN(C(=O)c3cn(C)c4ccc(S(=O)(=O)N(C)C5CCCCC5)cc4c3=O)CC2C)cc1 (configuration not stated) | inactive: -17.3% [at 11.5 µM] |  |
| O=C(Nc1ccc2nn(-c3ccccc3)nc2c1)c1ccc(-c2cccc(Cl)c2)o1 | inactive: 39.1% |  |
| CCOC(=O)[C@H](CCc1ccccc1)N[C@@H](C)C(=O)N(CC(=O)O)C1Cc2ccccc2C1 | inactive: -7.58% |  |

| SMILES | activity change, negative = inhibition | Potency |
| --- | --- | --- |
| CCOc1ccc(C(=O)N2CCN(Cc3cc(=O)n4nc(-c5ccccc5Cl)sc4n3)CC2)cc1 | inactive: -8.69% |  |
| O=C(CSc1nnc(CNC(=O)c2c(F)cccc2Cl)o1)Nc1cccc(F)c1 | inactive: -20.1% |  |
| CCOc1ccc(NS(=O)(=O)c2ccc(NC(=O)N3CCCC3)cc2)cc1 | inactive: -30.6% |  |
| CC(C)Cn1c(/C=C/c2ccc(F)cc2)nc2ccccc21 | inactive: 25.7% |  |
| COc1ccccc1NC(=O)C1=C(C)Nc2nc(SCc3cc(C)ccc3C)nn2C1c1ccccc1 (configuration not stated) | inactive: 13.8% |  |
| COc1cc2nc(Cl)nc(N)c2cc1OC | inactive: -4.07% |  |
| CCn1c(C)c(C)c2cc(C(=O)NCCc3ccc(C)cc3)ccc21 | inactive: -3.97% |  |
| Cc1ccccc1CS(=O)(=O)Cc1ccc(C(=O)NCc2ccc(F)cc2)o1 | inactive: -29.2% |  |
| Cc1ccc(C)c(NC(=O)c2cc(=O)c3cc(C)cc(C)c3o2)c1 | inactive: 8.04% [at 11.5 µM] |  |
| COc1cccc(NC(=O)CCNC(=O)Cn2ccc3ccccc3c2=O)c1 | inactive: -16.7% |  |
| CCc1ccc(NCc2cc3cc4c(cc3n(CC(=O)Nc3ccc(F)cc3)c2=O)OCCO4)cc1 | inactive: -21.5% |  |
| Cc1ccc(NC(=O)CSc2nnc(N)s2)c(C)c1 | inactive: -6.48% |  |
| COc1ccc(CNC(=O)C2CCN(S(=O)(=O)c3cccc4nonc34)CC2)cc1OC | inactive: -0.655% |  |
| Cn1ccnc1SCC(=O)Nc1cc(Cl)ccc1Cl | inactive: -18.1% |  |
| CCCCNC(=O)CCc1c(C)nc2c(c(C)nn2-c2ccccc2)c1C | inactive: -6.98% |  |
| CCN(CC)c1ccc(C2C(C(N)=O)=C(C)Nc3ncnn32)cc1 (configuration not stated) | inactive: -1.99% |  |
| COc1ccccc1N1CCN(C(CNC(=O)C(=O)NCCc2ccccc2)c2cccnc2)CC1 (configuration not stated) |  | active: 7.08 µM |
| Cc1ccccc1CN1CCCN(CC(=O)Nc2c(C)cccc2C)S1(=O)=O | inactive: 0% |  |
| COc1cccc(OCc2nc3ccccc3n2CCOc2cccc(C)c2)c1 | inactive: -1.51% |  |
| CCC(C(=O)Nc1ccc(C(C)=O)cc1)n1c(C)c2cnn(-c3ccccc3)c(=O)c2c1C (configuration not stated) | inactive: -11.7% |  |
| Cn1c(=O)c2c(nc(SCC(=O)Nc3ccc(F)cc3)n2Cc2ccccc2)n(C)c1=O | inactive: -11.4% |  |

| SMILES | activity change, negative = inhibition | Potency |
| --- | --- | --- |
| Fc1ccc(CNc2nc(-c3ccccc3)cc(C(F)(F)F)n2)cc1 | inactive: -23.2% |  |
| Cc1cc(O)c(C(C)C)cc1Cl | inactive: 11.5% |  |
| CCc1ccc(C2c3c(oc4ccc(C)cc4c3=O)C(=O)N2c2nc(C)c(C)s2)cc1 (configuration not stated) | inactive: 6.36% |  |
| COc1cc(NC(=O)Cn2cc(S(=O)(=O)c3ccccc3)c(=O)c3ccccc32)cc(OC)c1 | inactive: -12.5% |  |
| COc1cccc(-c2ccc3c(N)c(C(=O)Nc4ccc(C)c(F)c4)sc3n2)c1 | inactive: -8.23% |  |
| COc1ccc(-c2cc(C(F)(F)F)nc(SCCC(=O)Nc3c(C)cccc3C)n2)cc1 | inactive: -1.7% |  |
| O=C(NCC12CC3CC(CC(C3)C1)C2)c1cc2nc(-c3ccc(F)cc3)cc(C(F)(F)F)n2n1 | inactive: -4.98% |  |
| O=C(Nc1ccc(F)cc1F)c1ccc(-n2cnnc2)cc1 | inactive: 3.81% |  |
| Cc1cc(-n2c(C)nc3ccccc3c2=O)ccc1NC(=O)c1cccc([N+](=O)[O-])c1 | inactive: 2.37% |  |
| Cc1cccc(NC(=O)CSc2cc(C)c3ccccc3n2)c1 | inactive: -13.3% |  |
| Cc1ccc(Cn2c(CNC(=O)c3ccccc3Br)nc3cccnc32)cc1 | inactive: -12.4% |  |
| CCc1ccccc1NC(=O)Cc1c(C(=O)O)[nH]c2ccc(Cl)cc12 | inactive: -9.38% |  |
| CC(C)CNC(=O)C1=CC(c2ccc3c(c2)OCO3)=NS(=O)(=O)N1C | inactive: -12.7% |  |
| Cc1ccc(-n2c(=O)c3oc4ccccc4c3n(CC(=O)Nc3ccccc3)c2=O)cc1C | inactive: -29.9% |  |
| Oc1c(C(c2ccccc2)N2CCN(c3ccccc3)CC2)sc2nc(-c3ccco3)nn12 (configuration not stated) | inactive: -1.71% |  |
| O=C(NCCc1ccccc1)C(=O)Nc1cccc(Br)c1 | inactive: 13.4% |  |
| CO/N=C(\C(=O)O)c1csc(NC(=O)CCl)n1 | inactive: -0.924% |  |
| Cn1c(CCNC(=O)c2ccco2)nc2cc(NC(=O)COc3ccc(Cl)cc3)ccc21 | inactive: -12% |  |
| O=C(CSc1nc(=O)[nH]c2c1CCC2)NCc1ccccc1 | inactive: -18.1% |  |
| C=CC1=C(C(=O)O)N2C(=O)[C@@H](NC(=O)C(=NO)c3csc(N)n3)[C@H]2SC1 | inactive: -2.19% |  |
